Results as given in patent publication US8722849B2, “Polypeptides” (Novo Nordisk A/S, priority 2011, dated 2014).
pEC50: −log10 of the molar value. Not every detail of the peptide structures is certain; ends, links or a residue may be inferred. For some of these results: At least one read-out could not be matched to a standard name with certainty. Starred links: 1 amine or outer side, 2 acyl side, 3 side chain; linkers in the order of their positions; H or OH if unused. Positions of bridges follow the written chain, without caps; N, C: chain ends. Residues, ends and D or L forms follow the SMILES beside them. Groups on a side chain read outwards from the residue. *: point of attachment. C20 diacid = O=C(O)CCCCCCCCCCCCCCCCCCC(=O)*; C18 diacid = O=C(O)CCCCCCCCCCCCCCCCC(=O)*; γGlu = O=C(O)[C@H](CCC(=O)[*:2])N[*:1]; AEEA = NCCOCCOCC(=O)O

Assays:
[1] = molecular target: T1, human calcitonin receptor (Homo sapiens, UniProt P30988); test: Assay (II)a functional CRE-luciferase assay, human calcitonin receptor; type: cell-based; settings: Table 11; read-out: CTa receptor human EC50
T1 construct: expressed in transfected cells; host or cells: BHK570
T1 sequence (P30988 25-474): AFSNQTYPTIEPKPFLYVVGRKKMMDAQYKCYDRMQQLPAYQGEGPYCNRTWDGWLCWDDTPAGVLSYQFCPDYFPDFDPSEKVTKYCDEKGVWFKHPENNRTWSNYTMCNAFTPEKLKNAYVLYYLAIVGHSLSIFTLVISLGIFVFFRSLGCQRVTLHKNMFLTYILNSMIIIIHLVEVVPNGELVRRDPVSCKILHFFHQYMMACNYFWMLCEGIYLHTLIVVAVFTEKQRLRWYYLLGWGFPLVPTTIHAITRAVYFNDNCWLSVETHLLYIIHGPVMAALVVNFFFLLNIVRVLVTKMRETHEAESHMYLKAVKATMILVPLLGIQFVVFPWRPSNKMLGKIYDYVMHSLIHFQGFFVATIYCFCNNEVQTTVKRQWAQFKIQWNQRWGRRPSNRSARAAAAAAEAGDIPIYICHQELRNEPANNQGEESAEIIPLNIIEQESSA
Description: (§1) 1. Luciferase Assay Outline
(§2) Activation of calcitonin and amylin (coexpression of calcitonin receptor and receptor activity modifying proteins (RAMP)) receptors lead to increased intracellular concentrations of cAMP. Consequently, transcription is activated by promoters containing multiple copies of the cAMP response element (CRE). It is thus possible to measure amylin activity by the use of a CRE luciferase reporter gene introduced into BHK cells also expressing calcitonin or amylin receptors.
(§3) A BHK570 cell line was stably transfected with the human calcitonin receptor and a CRE-responsive luciferase reporter gene. The cell line was further transfected with RAMP-3, using standard methods. This turns the calcitonin receptor into an amylin 3(a) receptor. Methotrexate, Neomycin, and Hygromycin are selection markers for luciferase, the calcitonin receptor, and RAMP-3, respectively.
(§4) To perform activity assays, BHK calcitonin (a) receptor- or amylin 3(a)-receptor/CRE-luc cells were seeded in white 96 well culture plates at a density of about 20.000 cells/well. […] Further, 50 μl/well of standard or sample in assay buffer were added. After 3 hours incubation at 37° C. and 5% CO2, the assay medium with standard or sample were removed and replaced by 100 μl/well PBS. Further, 100 μl/well LucLite™ was added. The plates were sealed and incubated at room temperature for 30 minutes. Finally, luminescence was measured on a TopCounter (Packard) in SPC (single photon counting) mode.

[2] = Assay (III) ThT fibrillation assay for physical stability; type: physicochemical; settings: ThT fibrillation assay
How it was run: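 Freshly prepared formulations, pH-adjusted, with 1 μM ThT; four or eight replicates incubated at 37 °C under 960 rpm orbital shaking. Fluorescence (ex 444/em 485 nm) read every 20 min; […]. Peptide concentration measured by RP-HPLC before and after the run.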

[3] = molecular target: T2, human amylin receptor (amylin 3(a) receptor: human calcitonin receptor + RAMP-3) (Homo sapiens, UniProt O60896+P30988); test: Assay (II)a functional CRE-luciferase assay, human amylin receptor; type: cell-based
T2 construct: expressed in transfected cells; host or cells: BHK570
T2 sequence (P30988 25-474): T1 sequence (P30988 25-474)
T2 sequence (O60896 24-148 partner): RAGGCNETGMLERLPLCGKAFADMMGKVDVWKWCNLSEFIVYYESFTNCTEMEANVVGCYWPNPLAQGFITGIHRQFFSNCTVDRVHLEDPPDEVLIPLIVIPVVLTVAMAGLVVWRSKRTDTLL
Description: as §1, §2, §3, §4

Structure (SMILES) | pEC50 [1] | ThT pH 4.0 lag time [2] | ThT pH 4.0 lag time (h) [2] | ThT pH 4.0 recovery [2] | ThT pH 4.0 recovery (%) [2] | pEC50 ([3]; Table 5) | pEC50 ([3]; Table 11)
CC[C@H](C)[C@H](NC(=O)[C@H](CCCCNC(=O)COCCOCCNC(=O)COCCOCCNC(=O)CC[C@H](NC(=O)CCCCCCCCCCCCCCCCCCC(=O)O)C(=O)O)NC(=O)CNC(=O)[C@H](Cc1ccccc1)NC(=O)[C@H](CC(N)=O)NC(=O)[C@H](Cc1c[nH]cn1)NC(=O)[C@H](CO)NC(=O)[C@H](CO)NC(=O)[C@H](Cc1c[nH]cn1)NC(=O)[C@H](Cc1c[nH]cn1)NC(=O)[C@H](CC(C)C)NC(=O)[C@H](Cc1ccccc1)NC(=O)[C@H](CC(N)=O)NC(=O)[C@H](C)NC(=O)[C@H](CC(C)C)NC(=O)[C@H](CCCNC(=N)N)NC(=O)[C@H](CCC(N)=O)NC(=O)[C@@H](NC(=O)[C@H](C)NC(=O)[C@@H]1CSSC[C@H](NC(=O)[C@@H](N)CCCCN)C(=O)N[C@@H](CC(N)=O)C(=O)N[C@@H]([C@@H](C)O)C(=O)N[C@@H](C)C(=O)N[C@@H]([C@@H](C)O)C(=O)N1)[C@@H](C)O)C(=O)N[C@@H](CC(C)C)C(=O)N[C@@H](CO)C(=O)N[C@@H](CO)C(=O)N[C@H](C(=O)N[C@@H](CC(N)=O)C(=O)N[C@H](C(=O)NCC(=O)N[C@@H](CO)C(=O)N[C@@H](Cc1c[nH]cn1)C(=O)N[C@H](C(=O)N[C@@H](Cc1ccc(O)cc1)C(N)=O)[C@@H](C)O)C(C)C)[C@@H](C)O [Example 134, N-epsilon25-[2-(2-{2-[2-(2-{2-[(S)-4-Carboxy-4-(19-carboxyheptadecanoylamino)butyrylamino]ethoxy}ethoxy)acetylamino]ethoxy}ethoxy)acetyl]-[His17,His21,Lys25,Ser28,Ser29.His35]-pramlintide] (H-KCNTATCATQRLANFLHHSSHNFGK([AEEA-AEEA-γGlu-C20 diacid])ILSSTNVGSHTY-NH2; disulfide 2-7) | 9.71 | >45 h | >45 h | 23% | 23% | 9.41 | 9.41
CC(C)C[C@H](NC(=O)[C@H](CCCNC(=N)N)NC(=O)[C@H](CCC(N)=O)NC(=O)[C@@H](NC(=O)[C@H](C)NC(=O)[C@@H]1CSSC[C@H](NC(=O)[C@H](CCCCN)NC(=O)CC[C@H](NC(=O)CCCCCCCCCCCCCCCCCCC(=O)O)C(=O)O)C(=O)N[C@@H](CC(N)=O)C(=O)N[C@@H]([C@@H](C)O)C(=O)N[C@@H](C)C(=O)N[C@@H]([C@@H](C)O)C(=O)N1)[C@@H](C)O)C(=O)N[C@@H](C)C(=O)N[C@@H](CCC(=O)O)C(=O)N[C@@H](Cc1ccccc1)C(=O)N[C@@H](CC(C)C)C(=O)N[C@@H](CCCNC(=N)N)C(=O)N[C@@H](Cc1c[nH]cn1)C(=O)N[C@@H](CO)C(=O)N[C@@H](CO)C(=O)N[C@@H](CC(N)=O)C(=O)N[C@@H](CC(N)=O)C(=O)N[C@@H](Cc1ccccc1)C(=O)NCC(=O)N[C@@H](C)C(=O)N1CCC[C@H]1C(=O)N[C@@H](CC(C)C)C(=O)N[C@@H](CO)C(=O)N[C@@H](CO)C(=O)N[C@H](C(=O)N[C@@H](CC(N)=O)C(=O)N[C@H](C(=O)NCC(=O)N[C@@H](CO)C(=O)N[C@@H](Cc1c[nH]cn1)C(=O)N[C@H](C(=O)N[C@@H](Cc1ccc(O)cc1)C(N)=O)[C@@H](C)O)C(C)C)[C@@H](C)O [Example 65, N-alpha-[(S)-4-Carboxy-4-(19-carboxynonadecanoylamino)butyryl]-[Glu14,Arg17,Ala25,Pro26,Ser28,Ser29,His35]-pramlintide] ({C20 diacid-γGlu}-KCNTATCATQRLAEFLRHSSNNFGAPLSSTNVGSHTY-NH2; disulfide 2-7 (inferred); C-terminus assumed) |  |  |  | 100% | 100% |  | 
CC[C@H](C)[C@H](NC(=O)[C@@H]1CCCN1C(=O)CNC(=O)[C@H](Cc1ccccc1)NC(=O)[C@H](CC(N)=O)NC(=O)[C@H](CC(N)=O)NC(=O)[C@H](CO)NC(=O)[C@H](CO)NC(=O)[C@H](Cc1c[nH]cn1)NC(=O)[C@H](Cc1c[nH]cn1)NC(=O)[C@H](CC(C)C)NC(=O)[C@H](Cc1ccccc1)NC(=O)[C@H](CCC(=O)O)NC(=O)[C@H](C)NC(=O)[C@H](CC(C)C)NC(=O)[C@H](CCCNC(=N)N)NC(=O)[C@H](CCC(N)=O)NC(=O)[C@@H](NC(=O)[C@H](C)NC(=O)[C@@H]1CSSC[C@H](NC(=O)[C@H](CCCCN)NC(=O)[C@H](CCC(=O)O)NC(=O)CC[C@H](NC(=O)CCCCCCCCCCCCCCCCC(=O)O)C(=O)O)C(=O)N[C@@H](CC(N)=O)C(=O)N[C@@H]([C@@H](C)O)C(=O)N[C@@H](C)C(=O)N[C@@H]([C@@H](C)O)C(=O)N1)[C@@H](C)O)C(=O)N[C@@H](CC(C)C)C(=O)N1CCC[C@H]1C(=O)N1CCC[C@H]1C(=O)N[C@H](C(=O)N[C@@H](CC(N)=O)C(=O)N[C@H](C(=O)NCC(=O)N[C@@H](CO)C(=O)N[C@@H](CC(N)=O)C(=O)N[C@H](C(=O)N[C@@H](Cc1ccc(O)cc1)C(N)=O)[C@@H](C)O)C(C)C)[C@@H](C)O [Example 42, N-alpha-[(S)-4-Carboxy-4-(17-carboxyheptadecanoylamino)butyryl]-Glu-[Glu14,His17]-pramlintide] ({C18 diacid-γGlu}-EKCNTATCATQRLAEFLHHSSNNFGPILPPTNVGSNTY-NH2; disulfide 3-8 (inferred)) |  |  |  |  | 2% |  | 
CC[C@H](C)[C@H](NC(=O)[C@@H]1CCCN1C(=O)CNC(=O)[C@H](Cc1ccccc1)NC(=O)[C@H](CC(N)=O)NC(=O)[C@H](CC(N)=O)NC(=O)[C@H](CO)NC(=O)[C@H](CO)NC(=O)[C@H](Cc1c[nH]cn1)NC(=O)[C@H](Cc1c[nH]cn1)NC(=O)[C@H](CC(C)C)NC(=O)[C@H](Cc1ccccc1)NC(=O)[C@H](CCC(=O)O)NC(=O)[C@H](C)NC(=O)[C@H](CC(C)C)NC(=O)[C@H](CCCNC(=N)N)NC(=O)[C@H](CCC(N)=O)NC(=O)[C@@H](NC(=O)[C@H](C)NC(=O)[C@@H]1CSSC[C@H](NC(=O)[C@H](CCCCN)NC(=O)[C@H](CCC(=O)O)NC(=O)CC[C@H](NC(=O)CCCCCCCCCCCCCCCCCCC(=O)O)C(=O)O)C(=O)N[C@@H](CC(N)=O)C(=O)N[C@@H]([C@@H](C)O)C(=O)N[C@@H](C)C(=O)N[C@@H]([C@@H](C)O)C(=O)N1)[C@@H](C)O)C(=O)N[C@@H](CC(C)C)C(=O)N1CCC[C@H]1C(=O)N1CCC[C@H]1C(=O)N[C@H](C(=O)N[C@@H](CC(N)=O)C(=O)N[C@H](C(=O)NCC(=O)N[C@@H](CO)C(=O)N[C@@H](Cc1c[nH]cn1)C(=O)N[C@H](C(=O)N[C@@H](Cc1ccc(O)cc1)C(N)=O)[C@@H](C)O)C(C)C)[C@@H](C)O [Example 56, N-alpha-[(S)-4-Carboxy-4-(19-carboxynonadecanoylamino)butyryl]-Glu-[Glu14,His17,His35]-pramlintide] ({C20 diacid-γGlu}-EKCNTATCATQRLAEFLHHSSNNFGPILPPTNVGSHTY-NH2; disulfide 3-8 (inferred)) |  |  |  |  | 35% |  | 
CC[C@H](C)[C@H](NC(=O)[C@@H]1CCCN1C(=O)CNC(=O)[C@H](Cc1ccccc1)NC(=O)[C@H](CC(N)=O)NC(=O)[C@@H](NC(=O)[C@H](CO)NC(=O)[C@H](CO)NC(=O)[C@H](Cc1c[nH]cn1)NC(=O)[C@H](Cc1c[nH]cn1)NC(=O)[C@H](CC(C)C)NC(=O)[C@H](Cc1ccccc1)NC(=O)[C@H](CCC(=O)O)NC(=O)[C@H](C)NC(=O)[C@H](CC(C)C)NC(=O)[C@H](CCCNC(=N)N)NC(=O)[C@H](CCC(N)=O)NC(=O)[C@@H](NC(=O)[C@H](C)NC(=O)[C@@H]1CSSC[C@H](NC(=O)[C@H](CCCCN)NC(=O)CC[C@H](NC(=O)CCCCCCCCCCCCCCCCCCC(=O)O)C(=O)O)C(=O)N[C@@H](CC(N)=O)C(=O)N[C@@H]([C@@H](C)O)C(=O)N[C@@H](C)C(=O)N[C@@H]([C@@H](C)O)C(=O)N1)[C@@H](C)O)[C@@H](C)O)C(=O)N[C@@H](CC(C)C)C(=O)N1CCC[C@H]1C(=O)N1CCC[C@H]1C(=O)N[C@H](C(=O)N[C@@H](CC(N)=O)C(=O)N[C@H](C(=O)NCC(=O)N[C@@H](CO)C(=O)N[C@@H](CC(N)=O)C(=O)N[C@H](C(=O)N1CCC[C@H]1C(N)=O)[C@@H](C)O)C(C)C)[C@@H](C)O [Example 146, N-alpha-[(S)-4-Carboxy-4-(19-carboxynonadecanoylamino)butyryl]-[Glu14,His17,Thr21,Pro37]-pramlintide] ({C20 diacid-γGlu}-KCNTATCATQRLAEFLHHSSTNFGPILPPTNVGSNTP-NH2; disulfide 2-7 (inferred)) |  |  |  | 87% | 87% |  | 
